In patent US11420968B2 (priority 2018, dated 2022):
Like-named read-outs stand apart in the source and are kept apart here.

System: Molt-4 cells
Test: cells
Conditions: Homo sapiens
[1] = MOLT-4, read-out: Cellular activity (IC50, nM) Molt-4
[2] = MOLT-4, read-out: Celluclar activity (IC50, nM) Molt-4

Row | Structure (SMILES) | IC50 [1] [nM] | IC50 [2] [nM]
1 | CN(C)CCNc1ccc(C2CC2)c(C2CCCN2C2CC=C(c3ccc(C(=O)NS(=O)(=O)c4ccc(NCC5CCOCC5)c([N+](=O)[O-])c4)c(Oc4cnc5[nH]ccc5c4)c3)CC2)c1 (stereo not shown) [Example C172, 3-((1H-pyrrolo[2,3-b]pyridin-5-yl)oxy)-4′-(2-(2-cyclopropyl-5-((2-(dimethylamino)ethyl)amino)phenyl)pyrrolidin-1-yl)-N-((3-nitro-4-(((tetrahydro-2H-pyran-4-yl)methyl)amino)phenyl)sulfonyl)-2′,3′,4′,5′-tetrahydro-[1,1′-biphenyl]-4-carboxamide] | > 10000 | 
2 | O=C(NS(=O)(=O)c1ccc(NC[C@H]2COCCO2)c([N+](=O)[O-])c1)c1ccc(C2=CCC(N3CCCC3c3ccccc3C3CC3)CC2)cc1Oc1cnc2[nH]ccc2c1 (stereo partly drawn) [Example G8, N-((4-((((S)-1,4-dioxan-2-yl)methyl)amino)-3-nitrophenyl)sulfonyl)-3-((1H-pyrrolo[2,3-b]pyridin-5-yl)oxy)-4′-(2-(2-cyclopropylphenyl)pyrrolidin-1-yl)-2′,3′,4′,5′-tetrahydro-[1,1′-biphenyl]-4-carboxamide] | > 10000 | 
3 | O=C(NS(=O)(=O)c1ccc(OCC2(F)CCN(C3COC3)CC2)c([N+](=O)[O-])c1)c1ccc(-c2ccc(N3CCC[C@@H]3c3ccccc3C3CC3)cc2)cc1Oc1cnc2[nH]ccc2c1 [Example G97-R, (R)-3-((1H-pyrrolo[2,3-b]pyridin-5-yl)oxy)-4′-(2-(2-cyclopropylphenyl)pyrrolidin-1-yl)-N-((4-((4-fluoro-1-(oxetan-3-yl)piperidin-4-yl)methoxy)-3-nitrophenyl)sulfonyl)[1,1′-biphenyl]-4-carboxamide] | 434 | 
4 | O=C(NS(=O)(=O)c1ccc(NC[C@@H]2COCCO2)c([N+](=O)[O-])c1)c1ccc(C2=CCC(N3CCCC3c3ccccc3C3CC3)CC2)cc1Oc1cnc2[nH]ccc2c1 (stereo partly drawn) [Example G9, N-((4-((((R)-1,4-dioxan-2-yl)methyl)amino)-3-nitrophenyl)sulfonyl)-3-((1H-pyrrolo[2,3-b]pyridin-5-yl)oxy)-4′-(2-(2-cyclopropylphenyl)pyrrolidin-1-yl)-2′,3′,4′,5′-tetrahydro-[1,1′-biphenyl]-4-carboxamide] | 4470 | 
5 | CCc1ccccc1[C@@H]1CCCN1C1CC2(CCN(c3ccc(C(=O)NS(=O)(=O)c4ccc(NC[C@@H]5COCCO5)c([N+](=O)[O-])c4)c(Oc4cnc5[nH]ccc5c4)c3)CC2)C1 [Example F41, N-((4-((((R) 1,4-dioxan-2-yl)methyl)amino)-3-nitrophenyl)sulfonyl)-2-((1H-pyrrolo[2,3-b]pyridin-5-yl)oxy)-4-(2-((S)-2-(2-ethylphenyl)pyrrolidin-1-yl)-7-azaspiro[3.5]nonan-7-yl) benzamide] | 4300 | 4300
6 | CC(C)c1ccccc1[C@@H]1CCCN1c1ccc(-c2ccc(C(=O)NS(=O)(=O)c3ccc(OCC4(F)CCN(C5COC5)CC4)c([N+](=O)[O-])c3)c(Oc3cnc4[nH]ccc4c3)c2)cc1 [Example G105, (S)-3-((1H-pyrrolo[2,3-b]pyridin-5-yl)oxy)-N-((4-((4-fluoro-1-(oxetan-3-yl)piperidin-4-yl)methoxy)-3-nitrophenyl)sulfonyl)-4′-(2-(2-isopropylphenyl)pyrrolidin-1-yl)-[1,1′-biphenyl]-4-carboxamide] | 2670 | 
7 | C[C@]1(O)CC[C@H](CNc2ccc(S(=O)(=O)NC(=O)c3ccc(N4CC5(CC(N6CCC[C@H]6c6ccccc6C6CC6)C5)C4)cc3Oc3cnc4[nH]ccc4c3)cc2[N+](=O)[O-])CC1 [Example F106, 2-((1H-pyrrolo[2,3-b]pyridin-5-yl)oxy)-4-(6-((S)-2-(2-cyclopropylphenyl)pyrrolidin-1-yl)-2-azaspiro[3.3]heptan-2-yl)-N-((4-((((1r,4r)-4-hydroxy-4-methylcyclohexyl)methyl)amino)-3-nitrophenyl)sulfonyl)benzamide] | 1210 | 1210
8 | O=C(NS(=O)(=O)c1ccc(NCC2CCOCC2)c([N+](=O)[O-])c1)c1ccc(N2CCC3(CCC(N4CCC[C@H]4c4ccccc4C4CC4)CC3)CC2)cc1Oc1cnc2[nH]ccc2c1 [Example F32, (S)-2-((1H-pyrrolo[2,3-b]pyridin-5-yl)oxy)-4-(9-(2-(2-cyclopropylphenyl)pyrrolidin-1-yl)-3-azaspiro[5.5]undecan-3-yl)-N-((3-nitro-4-(((tetrahydro-2H-pyran-4-yl)methyl)amino)phenyl)sulfonyl)benzamide] | 7040 | 
9 | O=C(NS(=O)(=O)c1ccc(NC[C@@H]2COCCO2)c([N+](=O)[O-])c1)c1ccc(N2CCC3(CC2)CC(N2CCC[C@H]2c2ccccc2C2CC2)C3)cc1Oc1cnc2[nH]ccc2c1 [Example F38, N-((4-((((R)-1,4-dioxan-2-yl)methyl)amino)-3-nitrophenyl)sulfonyl)-2-((1H-pyrrolo[2,3-b]pyridin-5-yl)oxy)-4-(2-((S)-2-(2-cyclopropylphenyl)pyrrolidin-1-yl)-7-azaspiro[3.5]nonan-7-yl)benzamide] | 1740 | 1740
10 | CN1CCN(Cc2ccccc2[C@H]2CCCN2c2ccc(-c3ccc(C(=O)NS(=O)(=O)c4ccc(NCC5CCOCC5)c([N+](=O)[O-])c4)c(Oc4cnc5[nH]ccc5c4)c3)cc2)CC1 [Example A114, (R)-3-((1H-pyrrolo[2,3-b]pyridin-5-yl)oxy)-4′-(2-(2-((4-methylpiperazin-1-yl)methyl)phenyl)pyrrolidin-1-yl)-N-((3-nitro-4-(((tetrahydro-2H-pyran-4-yl)methyl)amino)phenyl)sulfonyl)-[1,1′-biphenyl]-4-carboxamide] | 589 | 
11 | O=C(NS(=O)(=O)c1ccc(NC[C@H]2COCCO2)c([N+](=O)[O-])c1)c1ccc(N2CCC3(CC2)CC(N2CCC[C@H]2c2ccccc2C2CC2)C3)cc1Oc1cnc2[nH]ccc2c1 [Example F37, N-((4-((((S)-1,4-dioxan-2-yl)methyl)amino)-3-nitrophenyl)sulfonyl)-2-((1H-pyrrolo[2,3b]pyridin-5-yl)oxy)-4-(2-((S)-2-(2-cyclopropylphenyl)pyrrolidin-1-yl)-7-azaspiro[3.5]nonan-7-yl) benzamide] | 1440 | 1440
12 | O=C(NS(=O)(=O)c1ccc(NCC2CCOCC2)c([N+](=O)[O-])c1)c1ccc(-c2ccc(N3CCCC3c3ccccc3C3CCNCC3)cc2)cc1Oc1cnc2[nH]ccc2c1 (stereo not shown) [Example A99, 3-((1H-pyrrolo[2,3-b]pyridin-5-yl)oxy)-N-((3-nitro-4-(((tetrahydro-2H-pyran-4-yl)methyl)amino)phenyl)sulfonyl)-4′-(2-(2-(piperidin-4-yl)phenyl)pyrrolidin-1-yl)-[1,1′-biphenyl]-4-carboxamide] | > 10000 | 
13 | O=C(NS(=O)(=O)c1ccc(OCC2(F)CCN(C3COC3)CC2)c([N+](=O)[O-])c1)c1ccc(-c2ccc(N3CCC[C@H]3c3ccccc3C3CC3)cc2)cc1Oc1cnc2[nH]ccc2c1 [Example G97-S, (S)-3-((1H-pyrrolo[2,3-b]pyridin-5-yl)oxy)-4′-(2-(2-cyclopropylphenyl)pyrrolidin-1-yl)-N-((4-((4-fluoro-1-(oxetan-3-yl)piperidin-4-yl)methoxy)-3-nitrophenyl)sulfonyl)-[1,1′-biphenyl]-4-carboxamide] | 3030 | 
14 | CN1CCC(c2ccccc2[C@H]2CCCN2c2ccc(-c3ccc(C(=O)NS(=O)(=O)c4ccc(NC[C@H]5CC[C@](C)(O)CC5)c([N+](=O)[O-])c4)c(Oc4cnc5[nH]ccc5c4)c3)cc2)CC1 [Example G122, 3-((1H-pyrrolo[2,3-b]pyridin-5-yl)oxy)-N-((4-((((1r,4r)-4-hydroxy-4-methylcyclohexyl)methyl)amino)-3-nitrophenyl)sulfonyl)-4′-((R)-2-(2-(1-methylpiperidin-4-yl)phenyl)pyrrolidin-1-yl)-[1,1′-biphenyl]4-carboxamide] | > 10000 | > 10000
15 | O=C(NS(=O)(=O)c1ccc(NC[C@@H]2COCCO2)c([N+](=O)[O-])c1)c1ccc(C2=CCC(N3CCC[C@H]3c3ccccc3C3CC3)CC2)cc1Oc1cnc2[nH]ccc2c1 (single isomer, unassigned) [Example G9-a, (R or S)—N-((4-((((R)-1,4-dioxan-2-yl)methyl)amino)-3-nitrophenyl)sulfonyl)-3-((1H-pyrrolo[2,3-b]pyridin-5-yl)oxy)-4′-((S)-2-(2-cyclopropylphenyl)pyrrolidin-1-yl)-2′,3′,4′,5′-tetrahydro-[1,1′-biphenyl]-4-carboxamide] | > 10000 | > 10000
16 | CCc1ccccc1[C@@H]1CCCN1C1CC2(CCN(c3ccc(C(=O)NS(=O)(=O)c4ccc(NC[C@H]5COCCO5)c([N+](=O)[O-])c4)c(Oc4cnc5[nH]ccc5c4)c3)CC2)C1 [Example F40, N-((4-((((S)-1,4-dioxan-2-yl)methyl)amino)-3-nitrophenyl)sulfonyl)-2-((1H-pyrrolo[2,3-b]pyridin-5-yl)oxy)-4-(2-((S)-2-(2-ethylphenyl)pyrrolidin-1-yl)-7-azaspiro[3.5]nonan-7-yl)benzamide] | 2700 | 2700
17 | CN(C)CCC(=O)N1CCC(c2ccccc2[C@H]2CCCN2c2ccc(-c3ccc(C(=O)NS(=O)(=O)c4ccc(NC[C@H]5CC[C@](C)(O)CC5)c([N+](=O)[O-])c4)c(Oc4cnc5[nH]ccc5c4)c3)cc2)CC1 [Example G126, 3-((1H-pyrrolo[2,3-b]pyridin-5-yl)oxy)-4′-((R)-2-(2-(1-(3-(dimethylamino)propanoyl)piperidin-4-yl)phenyl)pyrrolidin-1-yl)-N-((4-((((1r,4r)-4-hydroxy-4-methylcyclohexyl)methyl)amino)-3-nitrophenyl)sulfonyl)-[1,1′-biphenyl]-4-carboxamide] | > 10000 | 
18 | O=C(NS(=O)(=O)c1ccc(NCC2CCOCC2)c([N+](=O)[O-])c1)c1ccc(N2CCC3(CC2)CC(N2CCCC2c2cc(C4CC4)ccc2C2CC2)C3)cc1Oc1cnc2[nH]ccc2c1 (stereo not shown) [Example F76, 2-((1H-pyrrolo[2,3-b]pyridin-5-yl)oxy)-4-(2-(2-(2,5-dicyclopropylphenyl)pyrrolidin-1-yl)-7-azaspiro[3.5]nonan-7-yl)-N-((3-nitro-4-(((tetrahydro-2H-pyran-4-yl)methyl)amino)phenyl)sulfonyl)benzamide] | > 10000 | 
